Among all 94,000 compounds or so, about 6,200 (6.6%) were called active. Inconclusive means that the source gave no clear call. Such entries were picked first, then a sample of the others. Calls follow the shape of the dose curve; as a rule, active = well fitted inhibition curve with a large enough effect; inconclusive = small, poorly fitted or top-dose-only effect; inactive = flat fitted curve, though single readings scatter. Potencies beside an inconclusive call are fits to weak or partial responses and may not hold up.
Assay: Cytotoxic Profiling in HEK 293 Cell Line of Diverse Libraries Using Quantitative High-Throughput Screening; also: nearly all actives have a fitted effect of over 60% in size
Conditions: HEK 293 viability, ATP luminescence (CellTiter-Glo), 48-72 h; activity change, negative = cytotoxicity: at 115 µM (top of the series) unless noted; series mostly up to 115 µM
In short: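 Viability of HEK 293 cells, plated at 250 cells/well, was judged by cellular ATP after compound treatment for 48 or 72 hr. Luminescence was imaged 10 min after CellTiter-Glo addition at room temperature.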
% is scaled to controls: 0 for no effect and ±100 for the full control effect; potency is read from the fitted curve at half-maximal effect; tags tell the direction and shape of the fitted curve.

Question: With `Cc1nc(C)c(C(=O)N2CCc3c(c(-c4nncn4Cc4ccccc4)nn3C)C2)s1` as the compound, how does the “activity change, negative = cytotoxicity” value read?
Answer: inactive: 0.91%

Question: For `CCOC(=O)C1=C(C)N=C2SC=C(CC(=O)NC(C)CC)N2C1c1cccc([N+](=O)[O-])c1` (configuration not stated), which Potency is on record?
Answer: inconclusive: 63.1 µM [inhibitor, partial curve, poor fit]

Question: With `CC1(CNc2ccccc2)COc2ccc(C(=O)NCc3cccc(F)c3)cc2N1` (configuration not stated) as the compound, how does the Potency read?
Answer: inconclusive: 70.8 µM [inhibitor, partial curve, poor fit]

Question: With `Cc1noc(C)c1CC(=O)N1CCC(c2noc(-c3cnccn3)n2)C1` (configuration not stated) as the compound, how does the “activity change, negative = cytotoxicity” value read?
Answer: inactive: 0.777%

Question: Which Potency does the source give for `COc1ccc(-c2cc(C(=O)NCC(C)C)c3c(C4CCNC4)noc3n2)cc1` (configuration not stated) here?
Answer: inconclusive: 56.2 µM [inhibitor, partial curve, poor fit]

Question: For `COc1ccc(C(=O)N2CCc3[nH]nc(C(=O)NCCCc4ccccc4)c3C2)cc1`, which Potency is on record?
Answer: inconclusive: 39.8 µM [inhibitor, partial curve]

Question: With `Cn1nc(C2CC2)cc1NC(=O)c1ccccc1Cl` as the compound, how does the “activity change, negative = cytotoxicity” value read?
Answer: inactive: -10.3% [at 172 µM]

Question: For `O=C(NCc1ccccc1F)c1ccc2nc(-c3cccnc3Cl)oc2c1`, which Potency is on record?
Answer: active: 100 µM

Question: For `CCc1nc2c(c(-c3ccc(Cl)cc3)n1)CN(Cc1ccsc1)CC2`, which Potency is on record?
Answer: inconclusive: 89.1 µM [inhibitor, single point]

Question: Which “activity change, negative = cytotoxicity” value does the source give for `CCc1ccccc1S(=O)(=O)N(C)CC1CCOCC1` here?
Answer: inactive: -29.3%

Question: For `O=C(c1nc2cccnc2n(C2CCCCC2)c1=O)N1CCN(c2ncccn2)CC1`, which “activity change, negative = cytotoxicity” value is on record?
Answer: inactive: 1.5%

Question: Which “activity change, negative = cytotoxicity” value does the source give for `Cc1ccc(C(O)Cn2ccn3nc(-c4ccc(F)cc4)cc3c2=O)cc1` (configuration not stated) here?
Answer: inactive: 9.48%

Question: For `CCc1ccc(N2CC(c3noc(-c4ccc(OC)nc4)n3)CC2=O)cc1` (configuration not stated), which Potency is on record?
Answer: inconclusive: 89.1 µM [inhibitor, single point]

Question: Which Potency does the source give for `CCCCc1cc(C[C@@H]2C[C@H](NC(=O)NC(C)C)C2(C)C)no1` here?
Answer: inconclusive: 63.1 µM [inhibitor, full curve, poor fit]

Question: Which Potency does the source give for `O=[S+]1([O-])NC2(CCN(Cc3ccc(F)cc3)CC2)CNc2ccccc21` here?
Answer: inconclusive: 79.4 µM [inhibitor, single point]

Question: For `COc1ccc(CN2CCc3nc(C(=O)Nc4cccnc4)oc3CC2)cc1OC`, which Potency is on record?
Answer: inconclusive: 89.1 µM [inhibitor, partial curve, poor fit]

Question: With `O=C(Nc1cc(-c2cccnc2)nn1-c1ccccc1)c1ccccc1Cl` as the compound, how does the Potency read?
Answer: inconclusive: 44.7 µM [inhibitor, partial curve]

Question: With `COc1cccc(C(=O)NCCNC(=O)c2ccc(-c3cccc(C(F)(F)F)c3)cc2)c1` as the compound, how does the Potency read?
Answer: inconclusive: 35.5 µM [inhibitor, full curve, poor fit]

Question: For `CC#CCn1cc2c3c(cccc31)[C@H](CC(C)C)N[C@H](C(=O)N1CCN(CCOC)CC1)C2`, which Potency is on record?
Answer: inconclusive: 50.1 µM [inhibitor, partial curve, poor fit]

Question: For `COc1cc(NC(=O)Cn2c(N3CCc4ccccc4C3)nc(C)cc2=O)cc(OC)c1`, which Potency is on record?
Answer: inconclusive: 44.7 µM [inhibitor, partial curve, poor fit]

Question: Which “activity change, negative = cytotoxicity” value does the source give for `Cc1noc(-c2cccn3c(CNC(=O)c4ccoc4)nnc23)n1` here?
Answer: inactive: -4.02%

Question: With `CN(C)c1ccc(CN2CC(N3CCc4ccccc43)C2)cc1` as the compound, how does the Potency read?
Answer: active: 89.1 µM

Question: Which “activity change, negative = cytotoxicity” value does the source give for `O=C(C1CCCC1)N1CCC(C(=O)N2CCCC(c3nc4ncccc4[nH]3)C2)CC1` (configuration not stated) here?
Answer: inactive: -28%

Question: Which Potency does the source give for `CS(=O)(=O)NCCc1ccc(CC2CCN(C(=O)c3cnccn3)CC2)cc1` here?
Answer: inconclusive: 56.2 µM [inhibitor, partial curve, poor fit]

Question: For `Cc1ccccc1S(=O)(=O)N1CCCC(CCC(=O)NC2CCCCCC2)C1` (configuration not stated), which Potency is on record?
Answer: inconclusive: 44.7 µM [inhibitor, partial curve, poor fit]

Question: With `CSCC(=O)N1CCN2C(=O)c3cc(-c4ccccc4F)ccc3NC(=O)[C@H]2C1` as the compound, how does the Potency read?
Answer: inconclusive: 100 µM [inhibitor, partial curve]

Question: For `CN(C)C(=O)N1CCC(C(=O)N2CCC3(CC2)CC(=O)Nc2ccccc2O3)C1` (configuration not stated), which “activity change, negative = cytotoxicity” value is on record?
Answer: inactive: -0.226%

Question: Which Potency does the source give for `COc1cccc(-c2cn3c(n2)N(C(=O)C2CCCC2)CCC3)c1` here?
Answer: inconclusive: 20 µM [inhibitor, full curve]

Question: With `N#Cc1ccc(C(=O)N2CCC3(CC2)CN(Cc2ccccc2)CC3CO)cc1` (configuration not stated) as the compound, how does the Potency read?
Answer: inconclusive: 56.2 µM [inhibitor, partial curve, poor fit]

Question: With `O=C(C1CCCN1[S+](=O)([O-])c1ccsc1)N1CCC(c2ccccc2)CC1` (configuration not stated) as the compound, how does the Potency read?
Answer: inconclusive: 50.1 µM [inhibitor, partial curve, poor fit]

Question: With `COCCN1CCOC[C@H]2CCN(C(=O)c3ccco3)C[C@H]21` as the compound, how does the “activity change, negative = cytotoxicity” value read?
Answer: inactive: 2.8%

Question: For `CN1CCNc2nc(COc3ccccc3OC(F)(F)F)n(Cc3ccccc3)c2C1=O`, which Potency is on record?
Answer: inconclusive: 22.4 µM [inhibitor, full curve, poor fit]

Question: With `OC1CCC(NCc2ccc(-c3cnc4c(OCc5ccccc5)nccn34)cc2)CC1` (configuration not stated) as the compound, how does the Potency read?
Answer: active: 50.1 µM

Question: Which Potency does the source give for `COc1ccc2c(c1)C=C(CN1CCC(CO)(Cc3ccccc3Cl)CC1)CO2` here?
Answer: active: 17.8 µM

Question: Which Potency does the source give for `COc1ccc(-c2cccc(C(=O)N3CCN(Cc4ccccc4)CC3)c2)nn1` here?
Answer: inconclusive: 79.4 µM [inhibitor, partial curve, poor fit]

Question: With `CCC1(N2CCN(S(=O)(=O)c3ccc(F)c(C)c3)CC2)CCN(S(C)(=O)=O)C1` (configuration not stated) as the compound, how does the Potency read?
Answer: inconclusive: 44.7 µM [inhibitor, partial curve]

Question: With `O=c1cc(-c2ccncc2)oc2c(-c3ccccc3F)nccc12` as the compound, how does the Potency read?
Answer: inconclusive: 63.1 µM [inhibitor, full curve, poor fit]

Question: For `O=C(c1n[nH]c2c1CCCC2)N1CCc2c(nc3cc(-c4ccccc4)[nH]n3c2=O)C1`, which “activity change, negative = cytotoxicity” value is on record?
Answer: inactive: -1.18%

Question: For `O=C1NCc2ccccc2CC12CCN(Cc1ccccc1Br)C2` (configuration not stated), which Potency is on record?
Answer: inconclusive: 79.4 µM [inhibitor, partial curve, poor fit]

Question: Which Potency does the source give for `N#Cc1ccc(CN2CCC3(CC2)NC(=O)c2ccccc2O3)cc1` here?
Answer: inconclusive: 28.2 µM [inhibitor, full curve, poor fit]

Question: Which “activity change, negative = cytotoxicity” value does the source give for `CN1CC(=O)N(C2CCCNCC2)Cc2c(NC3CCCC3)ncnc21` (configuration not stated) here?
Answer: inactive: -8.26%

Question: Which Potency does the source give for `Cc1cc2nc3n(c(=O)c2n1CC(=O)Nc1cccc(C(C)C)c1)CCCCC3` here?
Answer: inconclusive: 89.1 µM [inhibitor, single point]

From PubChem BioAssay AID1345083 (National Center for Advancing Translational Sciences (NCATS), 2018)
